Positions count from the first letter of the chain named. The list shows a part of the results.

The labels stand for the following.
T1: RBFOX1 RRM (Homo sapiens, UniProt Q9NWB1 109-208)
T1 sequence: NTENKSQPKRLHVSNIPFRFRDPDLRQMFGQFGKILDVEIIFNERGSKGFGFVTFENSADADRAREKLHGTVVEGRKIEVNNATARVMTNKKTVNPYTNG

B1: CCAAUGC (DNA:RNA)
RNA: GGGAGACCGGAAUUCAGAUUGUCCCCAAUGCUUAAAUCCCGUCGUAGCCACCA
DNA 1: CAATCTGAATTCCGGTCTCCC
DNA 2: TGGTGGCTACGACGGGATT
B2: UUUUGGC (DNA:RNA)
RNA: B1 RNA with C25U, C26U, A27U, A28U, U29G
DNA 1: CAATCTGAATTCCGGTCTCCC
DNA 2: TGGTGGCTACGACGGGATT
B3: GGUUCGC (DNA:RNA)
RNA: B1 RNA with C25G, C26G, A27U, A28U, U29C
DNA 1: CAATCTGAATTCCGGTCTCCC
DNA 2: TGGTGGCTACGACGGGATT
B4: ACUGUGG (DNA:RNA)
RNA: B1 RNA with C25A, A27U, A28G, C31G
DNA 1: CAATCTGAATTCCGGTCTCCC
DNA 2: TGGTGGCTACGACGGGATT
B5: GCGUGUA (DNA:RNA)
RNA: B1 RNA with C25G, A27G, A28U, U29G, G30U, C31A
DNA 1: CAATCTGAATTCCGGTCTCCC
DNA 2: TGGTGGCTACGACGGGATT
B6: UUCGCAA (DNA:RNA)
RNA: GGGAGACCGGAAUUCAGAUUGUCCUUCGCAAUUAAAUCCCGUCGUAGCCACCA
DNA 1: CAATCTGAATTCCGGTCTCCC
DNA 2: TGGTGGCTACGACGGGATT
B7: UGUUGCU (DNA:RNA)
RNA: B6 RNA with U26G, C27U, G28U, C29G, A30C, A31U
DNA 1: CAATCTGAATTCCGGTCTCCC
DNA 2: TGGTGGCTACGACGGGATT
B8: UCCCGUA (DNA:RNA)
RNA: B6 RNA with U26C, G28C, C29G, A30U
DNA 1: CAATCTGAATTCCGGTCTCCC
DNA 2: TGGTGGCTACGACGGGATT
B9: CUUGAAU (DNA:RNA)
RNA: B6 RNA with U25C, C27U, C29A, A31U
DNA 1: CAATCTGAATTCCGGTCTCCC
DNA 2: TGGTGGCTACGACGGGATT
B10: AGCUACC (DNA:RNA)
RNA: B1 RNA with C25A, C26G, A27C, A28U, U29A, G30C
DNA 1: CAATCTGAATTCCGGTCTCCC
DNA 2: TGGTGGCTACGACGGGATT
B11: GUUUAUG (DNA:RNA)
RNA: B6 RNA with U25G, C27U, G28U, C29A, A30U, A31G
DNA 1: CAATCTGAATTCCGGTCTCCC
DNA 2: TGGTGGCTACGACGGGATT
B12: AUUGAAA (DNA:RNA)
RNA: B6 RNA with U25A, C27U, C29A
DNA 1: CAATCTGAATTCCGGTCTCCC
DNA 2: TGGTGGCTACGACGGGATT
B13: AUAAAUC (DNA:RNA)
RNA: B1 RNA with C25A, C26U, U29A, G30U
DNA 1: CAATCTGAATTCCGGTCTCCC
DNA 2: TGGTGGCTACGACGGGATT
B14: GUCCGCA (DNA:RNA)
RNA: B6 RNA with U25G, G28C, C29G, A30C
DNA 1: CAATCTGAATTCCGGTCTCCC
DNA 2: TGGTGGCTACGACGGGATT
B15: UAAAUGU (DNA:RNA)
RNA: B1 RNA with C25U, C26A, C31U
DNA 1: CAATCTGAATTCCGGTCTCCC
DNA 2: TGGTGGCTACGACGGGATT
B16: GUCCGGC (DNA:RNA)
RNA: B1 RNA with C25G, C26U, A27C, A28C, U29G
DNA 1: CAATCTGAATTCCGGTCTCCC
DNA 2: TGGTGGCTACGACGGGATT
B17: ACCAAGC (DNA:RNA)
RNA: B1 RNA with C25A, A27C, U29A
DNA 1: CAATCTGAATTCCGGTCTCCC
DNA 2: TGGTGGCTACGACGGGATT
B18: ACGGGAU (DNA:RNA)
RNA: B6 RNA with U25A, U26C, C27G, C29G, A31U
DNA 1: CAATCTGAATTCCGGTCTCCC
DNA 2: TGGTGGCTACGACGGGATT
B19: CAAAGGU (DNA:RNA)
RNA: B1 RNA with C26A, U29G, C31U
DNA 1: CAATCTGAATTCCGGTCTCCC
DNA 2: TGGTGGCTACGACGGGATT
B20: CGCAAGC (DNA:RNA)
RNA: B1 RNA with C26G, A27C, U29A
DNA 1: CAATCTGAATTCCGGTCTCCC
DNA 2: TGGTGGCTACGACGGGATT
B21: ACCAGCA (DNA:RNA)
RNA: B1 RNA with C25A, A27C, U29G, G30C, C31A
DNA 1: CAATCTGAATTCCGGTCTCCC
DNA 2: TGGTGGCTACGACGGGATT
B22: UGGAUCG (DNA:RNA)
RNA: B1 RNA with C25U, C26G, A27G, G30C, C31G
DNA 1: CAATCTGAATTCCGGTCTCCC
DNA 2: TGGTGGCTACGACGGGATT
B23: CGAUAAC (DNA:RNA)
RNA: B1 RNA with C26G, A28U, U29A, G30A
DNA 1: CAATCTGAATTCCGGTCTCCC
DNA 2: TGGTGGCTACGACGGGATT
B24: AUCGCCC (DNA:RNA)
RNA: B6 RNA with U25A, A30C, A31C
DNA 1: CAATCTGAATTCCGGTCTCCC
DNA 2: TGGTGGCTACGACGGGATT
B25: CUCCAGC (DNA:RNA)
RNA: B1 RNA with C26U, A27C, A28C, U29A
DNA 1: CAATCTGAATTCCGGTCTCCC
DNA 2: TGGTGGCTACGACGGGATT
B26: UGGUCUA (DNA:RNA)
RNA: B6 RNA with U26G, C27G, G28U, A30U
DNA 1: CAATCTGAATTCCGGTCTCCC
DNA 2: TGGTGGCTACGACGGGATT
B27: AGAGACU (DNA:RNA)
RNA: B1 RNA with C25A, C26G, A28G, U29A, G30C, C31U
DNA 1: CAATCTGAATTCCGGTCTCCC
DNA 2: TGGTGGCTACGACGGGATT
B28: CCAACAA (DNA:RNA)
RNA: B1 RNA with U29C, G30A, C31A
DNA 1: CAATCTGAATTCCGGTCTCCC
DNA 2: TGGTGGCTACGACGGGATT
B29: AUACUCC (DNA:RNA)
RNA: B1 RNA with C25A, C26U, A28C, G30C
DNA 1: CAATCTGAATTCCGGTCTCCC
DNA 2: TGGTGGCTACGACGGGATT
B30: CCCUAUA (DNA:RNA)
RNA: B1 RNA with A27C, A28U, U29A, G30U, C31A
DNA 1: CAATCTGAATTCCGGTCTCCC
DNA 2: TGGTGGCTACGACGGGATT
B31: UCUGGGG (DNA:RNA)
RNA: B1 RNA with C25U, A27U, A28G, U29G, C31G
DNA 1: CAATCTGAATTCCGGTCTCCC
DNA 2: TGGTGGCTACGACGGGATT

This experiment addresses T1, RBFOX1 RRM. Nature of the experiment: EMSA; HiTS-Eq, 1 nM pool, 10 min; buffer printed only for the single-RNA assays: 10 mM Tris pH 7.5, 150 mM NaCl, 3.4 mM EDTA, 0.001% NP-40, 30 C. The note with it: tags: His6 N-terminal (pET28a); label: 5' 32P. An outline of the steps: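 Purified wild-type or mutant RbFox RRM at increasing concentrations was equilibrated with 1 nM of 5′-radiolabelled RNA carrying 7 randomized nucleotides for 10 min in 50 µL. Unbound RNA was separated by 8% native PAGE and sequenced. Relative association constants came from read-count changes of each RNA species compared with the control reaction, normalised to the cognate motif.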
B1: the binding signal was 0.00439 KA relative to UGCAUGU.
As to B2, the binding signal was 0.0137 KA relative to UGCAUGU.
On to B3, for which the binding signal was 0.0222 KA relative to UGCAUGU.
The result for B4 reads 0.0129 KA relative to UGCAUGU; that for B5, 0.017 KA relative to UGCAUGU; that for B6, 0.00695 KA relative to UGCAUGU.
The result for B7 reads 0.0219 KA relative to UGCAUGU.
The result for B8 reads 0.00196 KA relative to UGCAUGU.
With B9, the binding signal is 0.0126 KA relative to UGCAUGU.
For B10, the binding signal is 0.00988 KA relative to UGCAUGU.
The figure for B11 is 0.0118 KA relative to UGCAUGU; for B12 it is 0.00387 KA relative to UGCAUGU; for B13 it is 0.000191 KA relative to UGCAUGU.
The result for B14 reads 0.0155 KA relative to UGCAUGU.
The result for B15 reads 0.0123 KA relative to UGCAUGU.
As for B16, the binding signal is 0.00575 KA relative to UGCAUGU.
Take B17: the binding signal was 0.00138 KA relative to UGCAUGU.
With B18, the binding signal is 0.0307 KA relative to UGCAUGU.
The result for B19 reads 0.00342 KA relative to UGCAUGU; that for B20, 0.0159 KA relative to UGCAUGU.
The figure for B21 is 0.0049 KA relative to UGCAUGU; for B22 it is 0.0333 KA relative to UGCAUGU.
As for B23, the binding signal is 0.00157 KA relative to UGCAUGU.
The figure for B24 is 0.00323 KA relative to UGCAUGU.
The figure for B25 is 0.00568 KA relative to UGCAUGU.
As to B26, the binding signal was 0.0102 KA relative to UGCAUGU.
The result for B27 reads 0.00429 KA relative to UGCAUGU; that for B28, 0.00206 KA relative to UGCAUGU; that for B29, 0.000718 KA relative to UGCAUGU.
Take B30: the binding signal was 0.0049 KA relative to UGCAUGU.
B31: the binding signal was 0.00717 KA relative to UGCAUGU.

The values above are taken from PMC9911399, “Two distinct binding modes provide the RNA-binding protein RbFox with extraordinary sequence specificity”.
